The record followed here is PubChem BioAssay AID2202238 (Ras Initiative Chemistry Research Team, Frederick National …, 2025).

Some of the results follow. Further columns of the screen follow, without active or inactive calls.

This experiment has as its target GTPase KRas (Homo sapiens) (UniProt P01116). Kind of experiment: Covalent labelling of cysteine mutants by fragments, read by mass spectrometry (AID 2202238). Also on record: protein at 5 µM with 500 µM competing thiol for 1.5 h. To be noted: KRAS G12D cysteine mutants, disulfide tethering, MALDI-TOF labeling, stronger effect = higher value, fragment at 500 µM.
Sequence of UniProt P01116 (P01116 whole entry, looked up, the tested form may be a part): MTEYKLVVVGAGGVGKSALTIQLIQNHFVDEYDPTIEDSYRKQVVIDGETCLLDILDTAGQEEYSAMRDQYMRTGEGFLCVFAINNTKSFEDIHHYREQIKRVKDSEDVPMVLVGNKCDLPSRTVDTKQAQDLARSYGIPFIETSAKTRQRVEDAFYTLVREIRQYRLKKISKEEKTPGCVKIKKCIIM
Setting [1] is: measured here: G60C mutant labeling.
Setting [2] is: measured here: G75C mutant labeling.
The mark [3] stands for this setting: measured here: H94C mutant labeling.
Where [4] appears, read: measured here: I36C mutant labeling.
[5] abbreviates: measured here: L120C mutant labeling.
[6] abbreviates: measured here: M67C mutant labeling.
The mark [7] stands for this setting: measured here: M72C mutant labeling.
Setting [8] is: measured here: N26C mutant labeling.
Setting [9] is: measured here: N86C mutant labeling.
The mark [10] stands for this setting: measured here: P121C mutant labeling.
Setting [11] is: measured here: S122C mutant labeling.
Where [12] appears, read: measured here: S136C mutant labeling.

Turning to `Cc1cccc(=O)n1CC(C)(O)C(=O)NCCS` (stereo not drawn), the percent labeling is, setting by setting: under setting [1], 27.4%; under setting [2], 10.4%; under setting [3], 29.6%; under setting [4], 20.3%; under setting [5], 26.3%; under setting [6], 31.7%. In addition, the percent labeling by setting is: under setting [7], 11%; under setting [8], 32.1%; under setting [9], 19.7%; under setting [10], 29.6%; under setting [11], 28.5%; under setting [12], 37.1%.

For `O=C(CCS)N1CCC(O)(C2CCCCC2)CC1`, the percent labeling amounted to 23.7% under setting [2]; 37.1% under setting [3]; 32.1% under setting [4]; 37.8% under setting [5]; 50.3% under setting [6]; 44.6% under setting [7]. Further, the percent labeling by setting is: under setting [9], 29.3%; under setting [10], 38.8%; under setting [11], 40.4%; under setting [12], 65.7%.

For `Cc1ccc(C2=CCN(C(=O)CCS)CC2)cc1`, the percent labeling reads like this: under setting [2], 4.8%; under setting [3], 9.2%; under setting [4], 0%; under setting [5], 3.3%; under setting [6], 2.7%; under setting [7], 6.3%. The percent labeling is, setting by setting: under setting [9], 2.6%; under setting [10], 3.5%; under setting [11], 8%; under setting [12], 4.7%.

As for `O=C(NCCS)c1cnnn1-c1ccccc1Br`, the percent labeling runs as follows: under setting [1], 49.8%; under setting [2], 18.6%; under setting [3], 30.3%; under setting [4], 24%; under setting [5], 26.8%; under setting [6], 28.6%. For the same compound, the percent labeling worked out at 57.6% under setting [7]; 33.4% under setting [8]; 20.3% under setting [9]; 22.6% under setting [10]; 19.3% under setting [11]; 40.3% under setting [12].

`O=C(CCS)N1CCC(Cn2cc(Br)cn2)CC1`: the percent labeling runs as follows: under setting [2], 16.1%; under setting [3], 38.9%; under setting [4], 38.7%; under setting [5], 30.1%; under setting [6], 46.6%; under setting [7], 27.5%. Also, the percent labeling was determined as 25.9% under setting [9], 36.1% under setting [10], 28.8% under setting [11] and 60.2% under setting [12].

Turning to `COC(=O)c1cn(C2CCCN(C(=O)CCS)C2)nn1` (stereo not drawn), the percent labeling was 11.9% under setting [2]; 36.7% under setting [3]; 43.1% under setting [4]; 29.9% under setting [5]; 46% under setting [6]; 23% under setting [7]. The percent labeling by setting is: under setting [9], 35.7%; under setting [10], 35.9%; under setting [11], 29.2%; under setting [12], 57.1%.

Consider `O=C(NCCS)c1cnc(-c2ccc(C(F)(F)F)cc2)[nH]1`, for which the percent labeling is 20.5% under setting [1]; 11.8% under setting [2]; 15.1% under setting [3]; 11% under setting [4]; 14.3% under setting [5]; 10.4% under setting [6]. Also, the percent labeling is, setting by setting: under setting [7], 32.7%; under setting [8], 34.2%; under setting [9], 13.3%; under setting [10], 11.3%; under setting [11], 7.3%; under setting [12], 16.8%.

On to `COC1CCCCN(CC(=O)NCCS)C1=O` (stereo not drawn), for which the percent labeling runs as follows: under setting [1], 20.8%; under setting [2], 6.9%; under setting [3], 25.3%; under setting [4], 18%; under setting [5], 42.6%; under setting [6], 20.6%. This compound also came in with a percent labeling under setting [7] of 9.6%; a percent labeling under setting [8] of 31.1%; a percent labeling under setting [9] of 21.8%; a percent labeling under setting [10] of 29.2%; a percent labeling under setting [11] of 33.2%; a percent labeling under setting [12] of 34%.

As to `O=C(CCS)N1CCC(c2cc(=O)[nH]o2)CC1`, the percent labeling by setting is: under setting [2], 3.6%; under setting [3], 19%; under setting [4], 28.7%; under setting [5], 27.9%; under setting [6], 20.1%; under setting [7], 10%. Further, the percent labeling runs as follows: under setting [9], 21.3%; under setting [10], 27.8%; under setting [11], 38.9%; under setting [12], 41.5%.

`Cc1cc(NC(=O)CCS)ccc1Oc1ccncc1`: the percent labeling reads like this: under setting [2], 24.2%; under setting [3], 29.7%; under setting [4], 24.9%; under setting [5], 28.9%; under setting [6], 26.8%; under setting [7], 68.6%. The percent labeling under setting [9] was 18.3%, the percent labeling under setting [10] amounted to 24.7%, the percent labeling under setting [11] came to 19.9% and the percent labeling under setting [12] is 39%.

For `O=C(CCS)N1CCC(c2ccc(F)cc2)CC1`, the percent labeling runs as follows: under setting [2], 26.3%; under setting [3], 36%; under setting [4], 26.6%; under setting [5], 17.3%; under setting [6], 21.2%; under setting [7], 41.1%. The percent labeling under setting [9] was found to be 21.1%, the percent labeling under setting [10] was 23.8%, the percent labeling under setting [11] stood at 23.1% and the percent labeling under setting [12] worked out at 44.8%.

Regarding `O=C(CCS)Nc1ccn(CCc2ccccn2)n1`, the percent labeling under setting [2] is 16%; the percent labeling under setting [3] amounted to 36.5%; the percent labeling under setting [4] is 41.8%; the percent labeling under setting [5] stood at 44.8%; the percent labeling under setting [6] was found to be 44.6%; the percent labeling under setting [7] came out at 32.8%. This compound registered a percent labeling under setting [9] of 45.1%, a percent labeling under setting [10] of 33.3%, a percent labeling under setting [11] of 32.7% and a percent labeling under setting [12] of 60.1%.

For the compound `O=C(CCS)NCc1cccc(-c2ccn[nH]2)c1`, the percent labeling turned out to be 13.8% under setting [2]; 30.1% under setting [3]; 39.1% under setting [4]; 32.4% under setting [5]; 49.5% under setting [6]; 33.5% under setting [7]. For the same compound, the percent labeling reads like this: under setting [9], 23.4%; under setting [10], 29.7%; under setting [11], 28.8%; under setting [12], 52.7%.

Turning to `O=C(CCS)N1CCN(c2ccc(O)cc2)CC1`, the percent labeling came out at 9.1% under setting [2]; 22.4% under setting [3]; 25.6% under setting [4]; 20.3% under setting [5]; 37% under setting [6]; 17.1% under setting [7]. Also, the percent labeling reads like this: under setting [9], 11.9%; under setting [10], 26.2%; under setting [11], 27.9%; under setting [12], 43%.

As for `O=C(NCCS)c1cn[nH]c1C1CCOCC1`, the percent labeling is 27.2% under setting [1]; 16.4% under setting [2]; 35.4% under setting [3]; 23.6% under setting [4]; 39.8% under setting [5]; 31.6% under setting [6]. In addition, the percent labeling under setting [7] is 32%; the percent labeling under setting [8] came out at 43.5%; the percent labeling under setting [9] amounted to 26.6%; the percent labeling under setting [10] stood at 32.2%; the percent labeling under setting [11] was 35.7%; the percent labeling under setting [12] was determined as 47.6%.

For the compound `O=C(CCS)NCC(O)c1ccc(O)cc1` (stereo not drawn), the percent labeling reads like this: under setting [2], 9.5%; under setting [3], 26.1%; under setting [4], 36.2%; under setting [5], 27%; under setting [6], 28.7%; under setting [7], 18.7%. Besides, the percent labeling under setting [9] was found to be 30.3%, the percent labeling under setting [10] worked out at 37.9%, the percent labeling under setting [11] amounted to 28.3% and the percent labeling under setting [12] was 45.9%.

On to `COc1ncc(Br)cc1CNC(=O)CCS`, for which the percent labeling worked out at 19.3% under setting [2]; 38.1% under setting [3]; 41.2% under setting [4]; 26.8% under setting [5]; 51.7% under setting [6]; 44.4% under setting [7]. The same compound registered a percent labeling under setting [9] of 28.4%, a percent labeling under setting [10] of 30.4%, a percent labeling under setting [11] of 30.5% and a percent labeling under setting [12] of 53.5%.

Consider `O=C(CCS)NC(c1ccc(Cl)c(F)c1)c1nn[nH]n1` (stereo not drawn), for which the percent labeling runs as follows: under setting [2], 14.1%; under setting [3], 34.1%; under setting [4], 32.3%; under setting [5], 39.9%; under setting [6], 36.4%; under setting [7], 32.2%. Also, the percent labeling reads like this: under setting [9], 28.6%; under setting [10], 49.2%; under setting [11], 38.5%; under setting [12], 46.8%.

For `O=C(CCC(=O)N1CC(=O)Nc2ccccc21)NCCS`, the percent labeling stood at 34.5% under setting [1]; 13% under setting [2]; 29.6% under setting [3]; 27.6% under setting [4]; 43.2% under setting [5]; 38.2% under setting [6]. In addition, the percent labeling reads like this: under setting [7], 23.4%; under setting [8], 31.7%; under setting [9], 25.4%; under setting [10], 32.9%; under setting [11], 29%; under setting [12], 48.8%.

As to `CC(C)(CC(=O)NCCS)Cc1ccc(Cl)cc1`, the percent labeling runs as follows: under setting [1], 34.4%; under setting [2], 11.2%; under setting [3], 16.4%; under setting [4], 12.7%; under setting [5], 17%; under setting [6], 12.5%. The percent labeling was found to be 21% under setting [7]; 42.2% under setting [8]; 11.2% under setting [9]; 14.2% under setting [10]; 11% under setting [11]; 16.9% under setting [12].

For `Cc1nc2c(o1)CCCC2CC(=O)NCCS` (stereo not drawn), the percent labeling runs as follows: under setting [1], 39.1%; under setting [2], 15%; under setting [3], 30.2%; under setting [4], 20.7%; under setting [5], 30.8%; under setting [6], 26.7%. The percent labeling under setting [7] was found to be 20.6%; the percent labeling under setting [8] worked out at 31.5%; the percent labeling under setting [9] turned out to be 20.9%; the percent labeling under setting [10] came to 29.9%; the percent labeling under setting [11] is 27.8%; the percent labeling under setting [12] came to 43.7%.

As for `Cc1ccc(N(Cc2cccs2)C(=O)CCS)cc1`, the percent labeling came out at 20.1% under setting [2]; 43.7% under setting [3]; 19.7% under setting [4]; 21.6% under setting [5]; 27.3% under setting [6]; 36.9% under setting [7]. For the same compound, the percent labeling is, setting by setting: under setting [9], 27.7%; under setting [10], 26.8%; under setting [11], 17%; under setting [12], 46.6%.

On to `Cc1n[nH]c(=O)c(CNC(=O)CCS)c1C`, for which the percent labeling by setting is: under setting [2], 9.9%; under setting [3], 27.2%; under setting [4], 39.6%; under setting [5], 27.5%; under setting [6], 30.7%; under setting [7], 19.1%. Moreover, the percent labeling reads like this: under setting [9], 19.4%; under setting [10], 34.5%; under setting [11], 35.8%; under setting [12], 49.1%.

As for `O=C(NCCS)c1ccnn1C1CCOCC1`, the percent labeling is 26% under setting [1]; 19.1% under setting [2]; 42.8% under setting [3]; 27.4% under setting [4]; 34.8% under setting [5]; 32.2% under setting [6]. For the same compound, the percent labeling came out at 36.7% under setting [7]; 37.8% under setting [8]; 18.8% under setting [9]; 29.9% under setting [10]; 27.4% under setting [11]; 55.1% under setting [12].
